Over roughly 2,900 compounds, “NF-kB SEAP reporter activity, fold change vs agonist alone” has its median near 0.99; the highest 2% begin near 2.6. The list shows a part of the results.
Assays:
[1] = tested on: RAW-Dual; experiment: NF-kB SEAP reporter activity, fold change vs agonist alone; higher = enhanced NF-kB activity; conditions: cytotoxicity flag (confluency mask): not cytotoxic
In short: (§1)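 Library stock was pin-tooled at 50 nL into 384-well plates of RAW-Dual macrophages (50,000 cells/well, DMEM), followed 1 h later by a PRR agonist, and the cells were kept at 37 °C, 5% CO2. Supernatant collected after 20 hours was read for IRF by QuantiLuc luminescence and for NF-κB by QuantiBlue absorbance at 620 nm. Reporter activity is fold change over agonist-alone wells, and a well counted as cytotoxic when its IncuCyte confluency was below 70% of agonist controls in both mask sets.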

[2] = tested on: RAW-Dual; experiment: NF-kB SEAP reporter activity, fold change vs agonist alone; cytotoxicity flag (confluency mask): not cytotoxic; higher = enhanced NF-kB activity
In short: as §1

[3] = library stock concentration (final ~1000-fold dilution): 10 mM, agonist: Imiquimod (TLR7) […]
[4] = library stock concentration (final ~1000-fold dilution): 10 mM, agonist: MPLA (TLR4) […]
[5] = agonist: ODN 1826 (TLR9) 0.5 ug/mL
[6] = agonist: Pam2CSK4 (TLR2/6) 0.1 ug/mL
[7] = agonist: Pam3CSK4 (TLR2/1) 0.1 ug/mL

SMILES: COc1ccc(C2OCC3C(c4ccc5c(c4)OCO5)OCC23)cc1OC (stereo unspecified)
- NF-kB SEAP reporter activity [1, 3]: 0.81
- NF-kB SEAP reporter activity [1, 4]: 1

SMILES: COc1ccc(C2OCC3C(c4ccc5c(c4)OCO5)OCC23)cc1OC (stereo unspecified) (library stock concentration (final ~1000-fold dilution): 10 mM)
- NF-kB SEAP reporter activity ([2]; agonist: LPS (TLR4) 0.1 ug/mL): 1.18
- NF-kB SEAP reporter activity [2, 5]: 0.814
- NF-kB SEAP reporter activity [2, 6]: 1
- NF-kB SEAP reporter activity [2, 7]: 0.963

SMILES: O=C(COc1ccc(Cl)cc1)NC1CCC(NC(=O)COc2ccc(Cl)cc2)CC1 (stereo unspecified)
- NF-kB SEAP reporter activity ([1]; library stock concentration (final ~1000-fold dilution): 2 mM, agonist: Imiquimod (TLR7) […]): 0.951
- NF-kB SEAP reporter activity ([1]; library stock concentration (final ~1000-fold dilution): 2 mM, agonist: MPLA (TLR4) […]): 0.973

SMILES: O=C(COc1ccc(Cl)cc1)NC1CCC(NC(=O)COc2ccc(Cl)cc2)CC1 (stereo unspecified) (library stock concentration (final ~1000-fold dilution): 2 mM)
- NF-kB SEAP reporter activity ([2]; agonist: LPS (TLR4) 0.1 ug/mL): 0.784
- NF-kB SEAP reporter activity [2, 5]: 1.11
- NF-kB SEAP reporter activity [2, 6]: 1.11
- NF-kB SEAP reporter activity [2, 7]: 0.998

SMILES: COc1cc2ncnc(Oc3cccc(NC(=O)Nc4cc(C(C)(C)C(F)(F)F)on4)c3)c2cc1OC
- NF-kB SEAP reporter activity [1, 3]: 0.423
- NF-kB SEAP reporter activity [1, 4]: 0.604

SMILES: COc1cc2ncnc(Oc3cccc(NC(=O)Nc4cc(C(C)(C)C(F)(F)F)on4)c3)c2cc1OC (library stock concentration (final ~1000-fold dilution): 10 mM)
- NF-kB SEAP reporter activity ([2]; agonist: LPS (TLR4) 0.1 ug/mL): 0.425
- NF-kB SEAP reporter activity [2, 5]: 0.386
- NF-kB SEAP reporter activity [2, 6]: 0.0841
- NF-kB SEAP reporter activity [2, 7]: 0.146

SMILES: NCC(=O)Nc1ccc(-n2nc(C(F)(F)F)cc2-c2ccc3c(ccc4ccccc43)c2)cc1
- NF-kB SEAP reporter activity [1, 3]: 0.728
- NF-kB SEAP reporter activity [1, 4]: 0.571

SMILES: NCC(=O)Nc1ccc(-n2nc(C(F)(F)F)cc2-c2ccc3c(ccc4ccccc43)c2)cc1 (library stock concentration (final ~1000-fold dilution): 10 mM)
- NF-kB SEAP reporter activity ([2]; agonist: LPS (TLR4) 0.1 ug/mL): 0.301
- NF-kB SEAP reporter activity [2, 5]: 0.193
- NF-kB SEAP reporter activity [2, 6]: 0.113
- NF-kB SEAP reporter activity [2, 7]: 0.175

SMILES: COCCc1ccc(OCC(O)CNC(C)C)cc1.COCCc1ccc(OCC(O)CNC(C)C)cc1.O=C(O)CCC(=O)O (stereo unspecified) (library stock concentration (final ~1000-fold dilution): 10 mM)
- NF-kB SEAP reporter activity ([2]; agonist: LPS (TLR4) 0.1 ug/mL): 1.32
- NF-kB SEAP reporter activity [2, 5]: 0.801
- NF-kB SEAP reporter activity [2, 6]: 0.839
- NF-kB SEAP reporter activity [2, 7]: 0.868

SMILES: COCCc1ccc(OCC(O)CNC(C)C)cc1.COCCc1ccc(OCC(O)CNC(C)C)cc1.O=C(O)CCC(=O)O (stereo unspecified)
- NF-kB SEAP reporter activity [1, 4]: 1.03

SMILES: CC1=C(C(=O)OC(C)C)C(c2cccc([N+](=O)[O-])c2)C(C(=O)OC2CN(C(c3ccccc3)c3ccccc3)C2)=C(N)N1 (stereo unspecified)
- NF-kB SEAP reporter activity [1, 3]: 1.17
- NF-kB SEAP reporter activity [1, 4]: 1.09

SMILES: CC1=C(C(=O)OC(C)C)C(c2cccc([N+](=O)[O-])c2)C(C(=O)OC2CN(C(c3ccccc3)c3ccccc3)C2)=C(N)N1 (stereo unspecified) (library stock concentration (final ~1000-fold dilution): 10 mM)
- NF-kB SEAP reporter activity ([2]; agonist: LPS (TLR4) 0.1 ug/mL): 0.329
- NF-kB SEAP reporter activity [2, 5]: 1.29
- NF-kB SEAP reporter activity [2, 6]: 0.583
- NF-kB SEAP reporter activity [2, 7]: 0.896

SMILES: COc1cc(C(=O)NS(=O)(=O)c2ccccc2C)ccc1Cc1cn(C)c2ccc(NC(=O)OC3CCCC3)cc12 (library stock concentration (final ~1000-fold dilution): 10 mM)
- NF-kB SEAP reporter activity ([2]; agonist: LPS (TLR4) 0.1 ug/mL): 1.53
- NF-kB SEAP reporter activity [2, 5]: 1.09
- NF-kB SEAP reporter activity [2, 6]: 0.973
- NF-kB SEAP reporter activity [2, 7]: 0.906

SMILES: COc1cc(C(=O)NS(=O)(=O)c2ccccc2C)ccc1Cc1cn(C)c2ccc(NC(=O)OC3CCCC3)cc12
- NF-kB SEAP reporter activity [1, 3]: 0.997
- NF-kB SEAP reporter activity [1, 4]: 1.08
